The source of these data is PMC6753193 (Frontiers in Microbiology, 2019).

For data set [1] the following is noted: ref Ammosova et al., 2018; cited from earlier work.
The procedure of data set [2]:
1E7-07 or 1E7-03 (10 μM) stability at various pH was tested at 37°C in sodium acetate-acetic acid buffer (pH = 4), NaH2PO4/Na2HPO4 buffer (pH = 7) and NaHCO3/NaOH buffer (pH = 10). Samples (100 μl) were collected at different time points up to 48 h, and evaporated to dryness using a SpeedVac concentrator immediately. The pellets were resolved in 100 μl of acetonitrile, vortexed for 2 min, then centrifuged at 13,000 × g for 5 min. The supernatant was transferred to a clean tube for LC-MS analysis.
We next compared stability of 1E7-07 to 1E7-03 in human and mouse serum at 37°C during 24 h incubation. Compounds (10 μM) were added to serum and aliquots were collected at different time points. Compounds were extracted from serum after total protein was precipitated with acetone, and quantified using LC/FT-MS ([Lin et al., 2017]). We identified 1E7-07 degradation products that were observed during incubation in mouse serum and in buffers with pH 4, pH 7, and pH 10 for 48 h at 37°C (Figure 2A). […] 1E7-03 was degraded by 90% in less than 30 min and by 100% in 6 h. […]
FIGURE 2 Cytotoxicity and stability of 1E7-07. […] Samples were collected at different time points, and compounds were extracted and quantified by LC/FT-MS analysis. […] Samples were processed and analyzed by LC/FT-MS. […] Remaining compounds were extracted and quantified by LC/FT-MS analysis.

For the compound `CCNC(=O)NC(=O)C(C)OC(=O)c1c2c(nc3ccccc13)/C(=C\c1cccc([N+](=O)[O-])c1)CCC2` (centres unmarked) [1E7], the toxicity entry in data set [1] is “toxic”. Consider `COc1ccc(C=C2CCc3c2nc2ccccc2c3C(=O)OC(C)C(=O)NC2CC2)cc1OC` (centres unmarked) [1E7-07], for which, in data set [2], the “stability at different pH” value is “overall better stability”.
